# Source: PMC6212790
# Some of the results follow. At the low end of the ranking the order means little.
# Target: T1, GST-Rok (full length) (UniProt O34857)
# T1 sequence: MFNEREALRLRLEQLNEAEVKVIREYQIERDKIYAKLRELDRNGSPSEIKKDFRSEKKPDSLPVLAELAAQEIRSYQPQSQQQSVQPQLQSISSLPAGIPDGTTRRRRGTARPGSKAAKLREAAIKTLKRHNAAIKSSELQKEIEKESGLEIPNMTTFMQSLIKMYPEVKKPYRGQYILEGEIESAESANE
# Assay: protein binding microarray;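 further: rank score from −0.5 (least bound) to 0.5 (best bound)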
# Conditions: Rok is a gene silencer of Bacillus subtilis; high values mean tight binding; most listed sequences are background and not binding sites; double strand, one strand shown
row,Sequence,binding signal
1,TACAAAGA,0.138 E-score
2,GATTAGGC,-0.196 E-score
3,ACCTGACG,-0.206 E-score
4,TTAATCAA,0.0113 E-score
5,GGCGCTCA,-0.246 E-score
6,CGGAACCC,-0.136 E-score
7,ACTTGCCC,-0.11 E-score
8,ATGTATAC,0.347 E-score
9,GTTCGCAA,0.0647 E-score
10,CACGCGAC,-0.196 E-score
11,CCGGGTAG,-0.145 E-score
12,GACCTAGC,0.0924 E-score
13,GATGCCGA,-0.0107 E-score
14,AACCGGGG,-0.334 E-score
15,ACGGATGC,-0.078 E-score
16,CCCGCGTC,-0.133 E-score
17,CGATCTCC,-0.122 E-score
18,CCGGCCTC,-0.397 E-score
19,GTTGGAAA,0.0453 E-score
20,CGCCCGAA,-0.207 E-score
21,ATCACCAG,0.0364 E-score
22,ATTAGCCA,-0.0359 E-score
23,AAGCCCCT,-0.336 E-score
24,ATGTAGTG,0.211 E-score
25,CTAAGCTA,0.244 E-score

row,Sequence,binding signal
1,AAACTTGC,-0.0499 E-score
2,AACAAATA,0.295 E-score
3,ATCTCCGA,0.00146 E-score
4,CTTGCCGA,-0.0663 E-score
5,ATTGATAG,0.288 E-score
6,GCCAGGAC,-0.283 E-score
7,CCAGTGAG,-0.239 E-score
8,TCAGGCCA,-0.178 E-score
9,AATCGCGA,0.193 E-score
10,ATCCAGAT,0.0992 E-score
11,ACGCCACC,-0.149 E-score
12,GCCACGGC,-0.323 E-score
13,GATAGGCA,0.0553 E-score
14,GAGGTTCC,-0.231 E-score
15,GACACAGC,-0.196 E-score
16,TTAACCAA,0.11 E-score
17,CCGAAAAC,0.0988 E-score
18,GCTCCAGC,-0.123 E-score
19,CTAAGGAC,-0.0964 E-score
20,GAATGTGC,0.0407 E-score
21,ACAAGCTC,-0.0235 E-score
22,CAAGTAGA,0.286 E-score
23,AGTAACTC,0.0592 E-score
24,CGTAGTAC,0.202 E-score
25,AGATAATA,0.31 E-score

row,Sequence,binding signal
1,ACCGGTAT,0.198 E-score
2,ATTCAACC,-0.142 E-score
3,GCCTTTCA,-0.234 E-score
4,CTTGGACC,-0.247 E-score
5,ACCCGCTA,-0.0838 E-score
6,GAATATAA,0.266 E-score
7,CAAAGATG,0.046 E-score
8,AACAAGCA,0.0484 E-score
9,GGCCAGGA,-0.233 E-score
10,GATGCATC,-0.00841 E-score
11,ACTTCCGG,-0.105 E-score
12,CAGGATCC,-0.0767 E-score
13,ACCGCACT,0.0535 E-score
14,ATATGGAC,0.025 E-score
15,AGTTGGAT,0.082 E-score
16,ACAATGCG,0.1 E-score
17,AGATGTGG,-0.117 E-score
18,TCCTTGAA,-0.144 E-score
19,GGTGGGAC,-0.282 E-score
20,CACAACAC,0.138 E-score
21,ATTCCAGA,0.0743 E-score
22,GAAAATGC,-0.0512 E-score
23,GACGGATC,-0.0729 E-score
24,AGGAGTGC,-0.293 E-score
25,AAGGAGGG,-0.308 E-score

row,Sequence,binding signal
1,CCAGAATA,0.0214 E-score
2,GCTGCGAA,-0.0711 E-score
3,AACCCTTC,-0.295 E-score
4,ACCCCAAC,-0.253 E-score
5,GCTATCGA,0.0757 E-score
6,TCGTACAA,0.149 E-score
7,TCTAACCA,0.162 E-score
8,GCACGGAA,0.0213 E-score
9,CCGGTTGC,-0.313 E-score
10,CAGAAATC,-0.0506 E-score
11,CTCGAGCA,-0.112 E-score
12,CCGTTTTC,-0.159 E-score
13,CTAGCCCA,-0.113 E-score
14,ACTGTGCA,0.0717 E-score
15,GCATGACC,-0.225 E-score
16,GGATGAGA,-0.102 E-score
17,AAGCATCA,0.0275 E-score
18,ACCCCGGT,-0.205 E-score
19,ACTGCCGG,-0.104 E-score
20,GGGTAGGA,-0.09 E-score
21,ACTACTGA,0.323 E-score
22,GTAATAAC,0.0644 E-score
23,GAAGGGAC,-0.372 E-score
24,GTCTGGAA,-0.0952 E-score
25,CGGCTGAG,-0.0154 E-score

row,Sequence,binding signal
1,ACAATGGC,0.0616 E-score
2,TAACCCGA,-0.0517 E-score
3,GATGTATA,0.33 E-score
4,CGGAATTA,0.239 E-score
5,CAGTTTGG,0.0137 E-score
6,GGTTCGAC,-0.107 E-score
7,AATAGAGG,-0.128 E-score
8,AGCCTCGC,-0.233 E-score
9,ATCAACTG,-0.0213 E-score
10,CTTGACAC,-0.068 E-score
11,CCTCTCCC,-0.444 E-score
12,AAAGCGTT,-0.197 E-score
13,ACGGAAGC,-0.348 E-score
14,TCGGCACA,-0.128 E-score
15,AACAAGGC,-0.192 E-score
16,AAATTATG,0.215 E-score
17,GATGAGAC,-0.273 E-score
18,AAATAAGC,-0.0238 E-score
19,CCCCTCTA,-0.271 E-score
20,ACTAAGAC,-0.0146 E-score
21,GCTAATGA,-0.0686 E-score
22,CTCTTTTC,-0.0791 E-score
23,AACTCTTG,-0.0712 E-score
24,ACGATCCT,0.00571 E-score
25,ATCCGGCG,-0.0839 E-score

row,Sequence,binding signal
1,CCCTAGCG,-0.256 E-score
2,GCCTAGAC,-0.293 E-score
3,ATGCGTTC,0.0859 E-score
4,CAAAATTA,0.204 E-score
5,GCATAAAA,0.251 E-score
6,ATCCTTTG,0.00052 E-score
7,TGACAGAA,-0.111 E-score
8,CCGTGGAC,-0.293 E-score
9,ACAGATAT,0.153 E-score
10,CAACCAGA,-0.199 E-score
11,ATCACGAC,-0.0777 E-score
12,GAGCCACA,-0.148 E-score
13,AACGCTGC,-0.118 E-score
14,GACGCCCC,-0.368 E-score
15,TCAGTGCA,-0.111 E-score
16,ATGCAGAC,-0.141 E-score
17,AAACCGTT,0.0137 E-score
18,ATCGTAAC,0.238 E-score
19,AAGCTTAG,0.00608 E-score
20,AGCAACAA,0.0506 E-score
21,CCAGCAAC,0.0306 E-score
22,CAATGCCC,-0.155 E-score
23,GTGGAATA,0.0844 E-score
24,AAAGGACA,-0.0521 E-score
25,ATTAAAAC,0.167 E-score

row,Sequence,binding signal
1,AATTCGGA,0.166 E-score
2,AAGCGCCT,-0.0876 E-score
3,CGGAGCGA,-0.225 E-score
4,CCTCGGAC,-0.104 E-score
5,ATGTACAT,0.409 E-score
6,CGGAGGTC,-0.295 E-score
7,GGCGAGGA,-0.31 E-score
8,GAACGGGA,-0.0892 E-score
9,CTCTCGAC,-0.113 E-score
10,CAGTGCAC,-0.0944 E-score
11,ATGAGACA,0.00283 E-score
12,CACATCTC,0.0106 E-score
13,AACCCGAG,-0.141 E-score
14,CCCTGGCG,-0.337 E-score
15,ATAGTTCG,0.299 E-score
16,CCGCAGAC,-0.181 E-score
17,AAATGCAC,-0.0384 E-score
18,CCAAAGAA,-0.0233 E-score
19,CTATCGAC,0.0997 E-score
20,AGCCTGCA,-0.136 E-score
21,CATACTAC,0.376 E-score
22,ACATTACT,0.305 E-score
